These results are taken from the antibiotic and cytotoxicity screens of Wong et al. (2023).

The list shows a part of the results.

One assay deals with HSkMC. In words: cytotoxicity call (relative viability < 0.9). The note with it: 10 µM.
The next assay concerns HepG2. In words: cytotoxicity call (relative viability < 0.9). The following applies: 10 µM.
In a further assay the test system is S. aureus RN4220. The assay is described as follows: growth inhibition call (relative growth <= 0.2). The note with it: 50 µM.

As for `Cn1cnc(S(=O)(=O)N2C[C@@H](O)COC[C@@H]3O[C@H](CC(=O)NCc4cc(F)cc(F)c4)CC[C@H]32)c1`, the cytotoxicity call in the assay with HSkMC and in the assay on HepG2 was “inactive” each time. Besides, in the assay with S. aureus RN4220, the growth inhibition call was “inactive”.

With `C[C@@H]1CN([C@H](C)CO)C(=O)Cc2cc(NC(=O)CCN3CCOCC3)ccc2O[C@H]1CN(C)S(=O)(=O)c1cn(C)cn1`, the cytotoxicity call in the assay with HSkMC and in the assay on HepG2 was “inactive” throughout. Besides, in the assay on S. aureus RN4220, the growth inhibition call is “inactive”.

`Cc1ccc(S(=O)(=O)Nc2ccc3c(c2)C(=O)N([C@H](C)CO)C[C@H](C)[C@H](CN(C)Cc2ccc(Cl)c(Cl)c2)OCCCC[C@H](C)O3)cc1`: the cytotoxicity call with HSkMC and in the assay on HepG2 was “inactive” each time. For the same compound, the growth inhibition call in the assay with S. aureus RN4220 is “inactive”.

Regarding `COC(=O)c1c(CC[C@@H](CO)NC(=O)N[C@@H](Cc2ccccc2)Cn2cc(-c3ccccc3)nn2)oc(C(=O)N2CCOCC2)c1C(=O)OC`, the cytotoxicity call with HSkMC and in the assay with HepG2 was “inactive” in each case. The growth inhibition call in the assay on S. aureus RN4220 is “inactive”.

On to `CC1CCC2C(C)(C)C3CC12CCC3(C)O` (configuration not stated), for which the cytotoxicity call in the assay with HSkMC and in the assay on HepG2 was “inactive” each time. In addition, in the assay with S. aureus RN4220, the growth inhibition call was “inactive”.

For the compound `CN(C)/N=N/c1nc[nH]c1C(N)=O`, the cytotoxicity call with HSkMC and in the assay with HepG2 was “inactive” in each case. In addition, the growth inhibition call in the assay with S. aureus RN4220 is “inactive”.

As to `CC(C)(C)OC(=O)NCCOCCOCCOc1ccc(N(C(=O)CCl)[C@@H](C(=O)NCCc2ccccc2)c2cccs2)cc1Cl`, the cytotoxicity call in the assay on HSkMC (human skeletal muscle cells) and in the assay on HepG2 was “active” in each case. Moreover, the growth inhibition call in the assay with S. aureus RN4220 is “inactive”.

As to `Cc1ccc(S(=O)(=O)N(C)C[C@@H]2Oc3c(NS(=O)(=O)c4ccc(F)cc4)cccc3C(=O)N([C@@H](C)CO)C[C@@H]2C)cc1`, the cytotoxicity call in the assay with HSkMC and in the assay on HepG2 was “inactive” each time. Further, in the assay with S. aureus RN4220, the growth inhibition call is “inactive”.

In the case of `O=C(NN1CCCCC1)c1nn(-c2ccc(Cl)cc2Cl)c(-c2ccc(C#Cc3ccc(C(F)(F)F)cc3)s2)c1CNS(=O)(=O)N1CCCC1`, the cytotoxicity call in the assay with HSkMC and in the assay with HepG2 was “inactive” each time. Also, the growth inhibition call in the assay with S. aureus RN4220 was “inactive”.
